From the supplement of paper PMC4604168 (melanoma cell lines)
The list shows a part of the results. Repeats are few or missing, and single values can be far off.

What follows are molecules tested on MZ2-MEL (assay: cell count relative to DMSO control; melanoma cells; higher = more viable cells). Conditions: library dose: standard library concentration; 72 h.
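Note: cells treated in 1,536-well plates, then fixed and DAPI-stained, with nuclei counted from automated high-throughput microscope images.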

Row | Compound | cell count
1 | CCCS(=O)(=O)Nc1ccc(F)c(C(=O)c2c[nH]c3ncc(Cl)cc23)c1F + C#Cc1cccc(Nc2ncnc3cc(OCCOC)c(OCCOC)cc23)c1 [erlotinib] (first compound 0.4 µM, partner dose 4 µM) | 63.1%
2 | C=C(c1ccc(C(=O)O)cc1)c1cc2c(cc1C)C(C)(C)CCC2(C)C [Bexarotene] + Nc1nc(F)nc2c1ncn2[C@@H]1O[C@H](CO)[C@@H](O)[C@@H]1O [fludarabine] (first compound 10 µM, partner dose 1 µM) | 74.8%
3 | CCCS(=O)(=O)Nc1ccc(F)c(C(=O)c2c[nH]c3ncc(Cl)cc23)c1F + O=C1NC(=O)/C(=C/c2ccc(-c3ccc(F)cc3O)o2)S1 [AS252424] (first compound 0.4 µM, partner dose 5 µM) | 65.7%
4 | NC1(c2ccc(-c3nc4ccn5c(=O)[nH]nc5c4cc3-c3ccccc3)cc2)CCC1 + Oc1nc(-c2ccc(C(F)(F)F)cc2)nc2c1CSCC2 [XAV939] (first compound 2 µM, partner dose 10 µM) | 116%
5 | CS(=O)(=O)c1ccc(C(=O)Nc2ccc(Cl)c(-c3ccccn3)c2)c(Cl)c1 [vismodegib] + O=C(O)C(=O)Nc1sc2c(c1C(=O)O)CCNC2 [TCS401] (first compound 5 µM, partner dose 8.33333 µM) | 102%
6 | CS(=O)(=O)c1ccc(C(=O)Nc2ccc(Cl)c(-c3ccccn3)c2)c(Cl)c1 [vismodegib] + Cn1c(Nc2ccc(C(F)(F)F)cc2)nc2cc(Oc3ccnc(-c4ncc(C(F)(F)F)[nH]4)c3)ccc21 [CHIR265] (first compound 5 µM, partner dose 0.4 µM) | 64.1%
